PMC4336329 (PLoS ONE, 2015)
The campaign covered roughly 310,000 compounds. About 14,000 (4.5%) showed an effect of 50% or more. Effects have a minus sign here. This is one part of the list.

target: human ether-à-go-go-related gene (hERG) potassium channel (human, UniProt Q12809); experiment: primary screen, population patch clamp on CHO cells stably expressing hERG
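Note: peak tail current of the secondary pulse compared with the same well before compound.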

human ether-à-go-go-related gene (hERG) potassium channel, sequence (Q12809 whole entry, looked up): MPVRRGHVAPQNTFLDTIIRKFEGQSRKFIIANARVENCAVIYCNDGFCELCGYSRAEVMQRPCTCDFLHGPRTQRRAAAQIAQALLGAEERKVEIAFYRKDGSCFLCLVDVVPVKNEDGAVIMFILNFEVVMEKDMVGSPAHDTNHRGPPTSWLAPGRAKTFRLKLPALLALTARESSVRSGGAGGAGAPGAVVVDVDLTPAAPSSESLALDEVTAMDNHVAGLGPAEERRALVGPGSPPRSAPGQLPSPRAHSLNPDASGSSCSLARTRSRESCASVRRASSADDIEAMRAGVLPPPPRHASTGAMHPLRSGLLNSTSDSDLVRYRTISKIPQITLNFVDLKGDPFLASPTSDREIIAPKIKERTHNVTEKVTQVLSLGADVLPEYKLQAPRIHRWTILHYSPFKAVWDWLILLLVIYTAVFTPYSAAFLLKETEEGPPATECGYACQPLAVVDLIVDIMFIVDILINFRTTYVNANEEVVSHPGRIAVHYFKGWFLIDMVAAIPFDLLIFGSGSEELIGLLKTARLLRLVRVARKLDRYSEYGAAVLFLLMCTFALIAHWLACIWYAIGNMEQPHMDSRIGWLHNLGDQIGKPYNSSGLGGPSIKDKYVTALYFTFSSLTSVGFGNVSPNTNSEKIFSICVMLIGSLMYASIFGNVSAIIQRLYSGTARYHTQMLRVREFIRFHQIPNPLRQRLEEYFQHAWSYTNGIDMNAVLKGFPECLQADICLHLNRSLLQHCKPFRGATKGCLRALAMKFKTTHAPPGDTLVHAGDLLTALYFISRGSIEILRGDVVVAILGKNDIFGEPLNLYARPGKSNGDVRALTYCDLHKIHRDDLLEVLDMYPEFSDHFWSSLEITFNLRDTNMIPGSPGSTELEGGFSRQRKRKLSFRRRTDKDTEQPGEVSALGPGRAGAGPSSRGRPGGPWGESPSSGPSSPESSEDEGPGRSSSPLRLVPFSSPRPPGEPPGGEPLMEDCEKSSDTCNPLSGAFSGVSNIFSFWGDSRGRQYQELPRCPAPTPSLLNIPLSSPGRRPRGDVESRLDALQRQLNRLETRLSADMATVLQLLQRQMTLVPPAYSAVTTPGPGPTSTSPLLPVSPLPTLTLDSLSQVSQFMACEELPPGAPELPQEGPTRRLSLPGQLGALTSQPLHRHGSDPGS

In order of rising “hERG current change (%, negative = inhibition) at 10uM” value:
1. COc1ccc(S(=O)(=O)n2c(CCN3CCOCC3)nc3ccccc32)cc1  -59.2%
2. CCC1Oc2ccc(C)cc2N(CC(=O)NCCCN2CCN(Cc3ccccc3)CC2)C1=O (stereo not drawn)  -53.9%
3. CCN(Cc1ccccc1OC)CC1CCCN(CCc2cccc(OC)c2)C1 (stereo not drawn)  -43.6%
4. O=C(CN(c1ccccc1)S(=O)(=O)c1ccc(Cl)cc1)Nc1cccnc1  -34.2%
5. c1ccc2c(N3CCOCC3)nc(-c3ccncc3)nc2c1  -31.3%
6. C[C@@H](C(=O)OCC(=O)Nc1cc(S(=O)(=O)N2CCOCC2)ccc1Cl)N1C(=O)C2CCCCC2C1=O (stereo partly drawn)  -28.5%
7. O=C1CC(N2CCC(c3nc4ccccc4s3)CC2)C(=O)N1 (stereo not drawn)  -27.3%
8. COc1cccc(NC(=O)Nc2ccc3c(c2)nc(C)n3C)c1  -25.2%
9. CC1CCCN(c2nc3c(c(=O)n(C)c(=O)n3C)n2CCSc2nc3ccccc3s2)C1 (stereo not drawn)  -23.9%
10. N#Cc1nc(COc2ccccc2)oc1N1CCOCC1  -19.6%
11. Cc1nc(N2CCN(Cc3ccc(Cl)cc3)CC2)c2oc3ccccc3c2n1  -19.3%
12. COc1ccccc1NCC(=O)Nc1cc(S(=O)(=O)N2CCOCC2)ccc1N1CCOCC1  -18.3%
13. Cl.Nc1cccc(CCc2nc3ccccc3[nH]2)c1  -16.2%
14. CCCCC(O)(c1ccccc1)C(CN1CCOCC1)c1ccccc1.Cl (stereo not drawn)  -15.3%
15. C(=N\Nc1nccc(-c2cccnc2)n1)/c1ccccc1  -15.1%
16. CCN(CC)S(=O)(=O)c1ccc(C(=O)Oc2coc(CSc3nc(C)cc(C)n3)cc2=O)cc1  -14.8%
17. COC(=O)CSc1nnc(NC(=O)c2ccc3c(c2)OCO3)s1  -14.7%
18. CCCCN1CN(S(=O)(=O)c2ccc(OC)cc2)c2nc3ccccc3nc21  -14.5%
19. CCOC(=O)c1c(C)n(Cc2ccccc2)c2ccc(OCC(O)Cn3nc(C)nc3C)cc12 (stereo not drawn)  -13.9%
20. CCOC(=O)c1cccc(NC(=O)CCNS(=O)(=O)c2cccc3nonc23)c1  -12.9%
21. COc1ccc(NC(=O)CN2CCN(c3ccc(Cl)cc3)CC2)c(OC)c1  -12.7%
22. O=C(CN1CCSC1=O)N1CCN(S(=O)(=O)c2ccc(Cl)cc2)CC1  -11.9%
23. COc1ccc(NC(=O)c2onc(C)c2Cl)cc1  -11.3%
24. O=C(Nc1nc(-c2cccs2)cs1)c1ccc(Cl)cc1  -8.66%
25. CCOc1ccc(NC(=O)CCN2C(=O)c3ccccc3C2=O)cc1  -7.96%
26. Cc1cc(NC(=O)CSc2ccc(-c3ccccc3)nn2)no1  -7.53%
27. CC(NC(=O)C1CCN(c2nnc(-n3cccc3)s2)CC1)C12CC3CC(CC(C3)C1)C2 (stereo not drawn)  -5.82%
28. COc1ccc(/C=C/C(=O)NCCSCc2ccco2)cc1  -5.19%
29. CCC1Nc2ncnc(N3CCCCC3)c2N(Cc2ccccc2)C1=O.O=C(O)C(F)(F)F (stereo not drawn)  -4.8%
30. CCCc1cc(=O)[nH]c(/N=C(\N)Nc2ccccc2)n1  -4.7%
31. COc1cccc(C2N(c3ccc(Cl)cc3)C(=O)C3CCCN32)c1 (stereo not drawn)  -3.84%
32. CN(CC(=O)Nc1ccccc1Cl)C(=O)CSc1nncs1  -3.38%
33. Cc1ccc(C(=O)NCC(=O)OCC(=O)NC2CCCC(C)C2C)s1 (stereo not drawn)  -2.32%
34. Clc1ccc2c(c1)c1cc(Cl)ccc1n2CN1CCOCC1  -1.99%
35. COc1ccccc1C1CCN(C(=S)Nc2ccc(Br)cc2)CC1  0.164%
36. CCCc1nc2c([nH]1)C(c1cccnc1)C(C#N)=C(N)O2 (stereo not drawn)  0.373%
37. Cc1ccc(NC(=S)N2CCC(c3nc4ccccc4s3)CC2)cc1  0.427%
38. CC1(C)CC2(CC(c3cccs3)c3cc(Cl)c(O)cc3O2)NC(=S)N1 (stereo not drawn)  0.54%
39. O=C(Cn1cncn1)c1ccc(Cl)cc1  0.632%
40. NS(=O)(=O)c1ccc(NC(=S)NC(=O)c2ccc(-c3ccccc3)cc2)cc1  1.17%
41. CCCSc1nc2cc(C)c(C)cc2n1CC(O)CO (stereo not drawn)  1.68%
42. CC(=O)Nc1ccc(S(=O)(=O)NCCNC(=O)c2ccccc2F)cc1  1.99%
43. Cc1ccc(NC(=O)COc2ccccc2C=O)cc1Cl  2.05%
44. Cc1nn2c(-c3ccccc3)ccnc2c1Br  2.5%
45. CC(C)c1ccc(NC(=O)CSc2nc3ccsc3c(=O)n2Cc2ccc(C(=O)O)cc2)cc1  3.05%
46. O=C(C1CCN(C2CC(=O)N(c3ccc(F)cc3)C2=O)CC1)N1CCOCC1 (stereo not drawn)  3.4%
47. CCn1ncc(Br)c1C(=O)Nc1ccccc1C(F)(F)F  3.66%
48. O=C(c1ccc(Cl)cc1)N1CCN(c2cccc3[nH]ccc23)CC1  3.68%
49. CCC(CC)c1nnc(NC(=O)c2nn(C)c(=O)c3ccccc23)s1  5.58%
50. CCCCNC(c1ccccc1)c1ccncc1 (stereo not drawn)  5.77%
51. O=c1[nH]c2ccccc2nc1/C=C/c1ccc(F)cc1  6.4%
52. Cc1nc2sccn2c1-c1csc(NCc2ccccc2)n1  6.86%
53. O=C(NCCCn1ccnc1)c1ccc2c(c1)OCCO2  6.86%
54. Cc1[nH]oc(=O)c1N=Nc1ccc2[nH]c(=O)[nH]c2c1  7.93%
55. O=C(COc1ccc(C(=O)c2ccccc2)cc1)Nc1ncccc1O  8.32%
56. Cc1nc(C(Cl)(Cl)Cl)nc2[nH]ccc(=O)c12  8.4%
57. CCCn1c(SCC(=O)c2ccc3c(c2)NC(=O)CO3)nc2ccccc21  8.76%
58. Cn1cc(C(=O)C(=O)N2CCCc3ccccc32)c2ccccc21  8.92%
59. O=C(NNC(=O)c1ccc(Cl)c(Cl)c1)c1ccncc1  9.8%
60. CC(C)c1ccc(NC2CCCN(C(=O)CCN3CCCC3=O)C2)cc1 (stereo not drawn)  9.8%
61. Cc1cc(S(=O)(=O)NCC2CCCO2)c(C)cc1Br (stereo not drawn)  9.84%
62. COC(=O)Nc1ccc2ncn(C)c(=O)c2c1  10.5%
63. CCCCC(=O)N/N=C/c1c(O)n(CC)c(=S)n(CC)c1=O  10.5%
64. CC1(C)NC(=O)N(Cc2cc(=O)n3ccsc3n2)C1=O  10.8%
65. COc1ccccc1-c1cn[nH]c1-c1ccc(O)cc1O  11.2%
66. Cc1cc(C)c([N+](=O)[O-])cc1-c1ccc(/C=N/c2c(-c3ccco3)nc3ccccn23)o1  11.2%
67. Cc1c(C(=O)O)cccc1-c1ccc(C=O)o1  11.3%
68. COc1cc(CNC(=O)CCn2nc(C)c3c(C)n(-c4ccccc4)nc3c2=O)cc(OC)c1OC  12%
69. Cc1ccc(C)c(N2CCN(c3ccc(N4C(=O)COCC4=O)cc3[N+](=O)[O-])CC2)c1  12.4%
70. CC(=O)C1C(c2ccc([N+](=O)[O-])cc2)c2c(noc2C)CC1(C)O (stereo not drawn)  12.4%
71. COc1ccc([N+](=O)[O-])cc1NC(=O)Cn1ccc(C(F)(F)F)n1  13.3%
72. COc1ccc(N(CC(=O)O)S(=O)(=O)c2cccnc2)cc1  13.5%
73. CNS(=O)(=O)c1cccc(C(=O)OCC(=O)Nc2ccc(N3CCCCC3)cc2)c1  13.6%
74. Cc1cccc(-c2nc3c(c(=O)c4ccccc4n3C)c(=O)n2-c2ccccc2)c1  14%
75. Cc1onc(-c2ccccc2)c1C(=O)NC(=S)NNC(=O)c1ccc(O)cc1  14.4%
76. NC(=S)Nc1cnc2ccccc2c1  14.7%
77. Cc1cccc(N2C(=O)N3[C@H](c4ccc(F)cc4)[C@@H]4C(=O)N(C5CCCCC5)C(=O)[C@@H]4[C@]3(Cc3ccc(Cl)cc3)C2=O)c1  14.9%
78. Cc1nc(N)sc1C(=O)OCC(C)C  15.9%
79. S=c1[nH]nc(-c2ccccc2)n1CC1CCCO1 (stereo not drawn)  16%
80. CC(C)[C@H](NC(=O)Nc1ccc(S(N)(=O)=O)cc1)C(=O)O  16.9%
81. COc1cccc(-c2c(C(=O)N/N=C(\C)c3ccc(Cl)s3)nnn2-c2nonc2N)c1  17%
82. COC(=O)c1cnn(-c2ccccc2)c1/C=N/NC(=S)Nc1ccc(Cl)cc1  17.9%
83. CN(C)c1ccc(-n2cccc2/C=C/[N+](=O)[O-])cc1  20.2%
84. CCOc1ccc(NC(=O)c2ccc(NC(=S)NC3CCCCC3)cc2)cc1  20.9%
85. CCCNC(=O)Cn1cnc([N+](=O)[O-])n1  21.8%
86. Cc1ccc(C2C(C#N)=C(N)Oc3n[nH]c(-c4cccnc4)c32)o1 (stereo not drawn)  22.2%
87. CCOc1cc(N2CCOCC2)c(OCC)cc1NC(=O)CN1C(=O)NC(C)(C2CC2)C1=O (stereo not drawn)  26.8%
88. C=CCNC(=O)c1c(N)n(-c2ccc3c(c2)OCO3)c2nc3ccccc3nc12  28.7%
89. COc1ccc2nc(C)c(C(=O)NN)cc2c1  28.8%
90. CC(C(=O)O)C(=O)O  30.5%
